From the supplement of paper PMC9334596
Where “and” joins values, the source holds several entries; their conditions need not be identical. Equal values may be shown once. Over roughly 5,300 compounds, “PER2::LUC luminescence relative to vehicle control” has its median near 0.96; the highest 2% begin near 1.3. Some of the results follow.

System: mPer2Luc MEF
Test: PER2::LUC luminescence relative to vehicle control (fold of vehicle); higher = higher PER2::LUC reporter signal
Conditions: 10 µM
In short: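 Mouse embryonic fibroblasts carrying the mPer2Luc reporter were seeded at ~3000 cells per well in 384-well plates, 48 h before compounds from commercial libraries were added at 10 μM. Cells were grown in DMEM with 10% FBS at 37 °C and 5% CO2. Luminescence was read with the ONE-Glo luciferase assay system 24 h and 30 h after treatment, followed by an alamarBlue viability assay. The value is PER2::LUC luminescence as fold of vehicle control.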

Structure (SMILES)	PER2::LUC luminescence (time after treatment 24 h)	PER2::LUC luminescence (time after treatment 30 h)
COc1cc2/c(=N/c3ccc(Br)cc3F)nc[nH]c2cc1OCC1CCN(C)CC1	0.542	0.571
OC1c2ccccc2N=C2CCCN21 (configuration not stated)	0.854	0.868
COc1cc2c3cc1Oc1c(OC)c(OC)cc4c1[C@@H](Cc1ccc(OC(=O)c5ccc([N+](=O)[O-])cc5)c(c1)Oc1ccc(cc1)C[C@@H]3N(C)CC2)N(C)CC4	0.754	0.76
C[C@H](N)[C@H](O)c1cccc(O)c1	1.03	0.965
COc1ccc(-c2nc(-c3ccc(-c4cccc(Cl)c4)o3)[nH]c2-c2ccc(OC)cc2)cc1	1.2	1.08
CC1(C)S[C@@H]2[C@H](NC(=O)C(C(=O)O)c3ccccc3)C(=O)N2[C@H]1C(=O)O (some centres not stated)	1.05	1.03
CCN(CC)CCOC(=O)C(Cc1cccc2ccccc12)CC1CCCO1 (configuration not stated)	1.09	0.939
CC(C)NCC(O)COc1ccc(COCCOC(C)C)cc1 (racemic)	0.958	0.87
CC(C)(C)C(=O)C(Oc1ccc(Cl)cc1)n1ccnc1 (configuration not stated)	1.07	0.832
Cc1c(C(=O)O)c(O)cc2c1C(=O)c1c(O)c([C@@H]3O[C@H](CO)[C@@H](O)[C@H](O)[C@H]3O)c(O)c(O)c1C2=O	1.02	0.987
Cc1nc2sccn2c(=O)c1CCN1CCC(=C(c2ccccc2)c2ccc(F)cc2)CC1	0.916	0.95
CC(C)=CCC/C(C)=C/CC/C(C)=C/CO	1.05	1.13
NC(N)=NC(=O)c1nc(Cl)c(N2CCCCCC2)nc1N	1.06	1.13
CS(=O)(=O)c1ccc(-c2cc(Br)sc2-c2ccc(F)cc2)cc1	1.07	1.04
O=C1CN(/N=C/c2ccc([N+](=O)[O-])o2)C(=O)N1	1.05	1.26
c1ccc2c(c1)CN1CCCC1=N2	1.03 and 0.845	0.945 and 0.866
S=c1ccss1	0.946	0.894
CC1=C(CC(=O)O)c2cc(F)ccc2/C1=C\c1ccc(S(C)(=O)=O)cc1	1	0.896
N[C@H](C(=O)O)c1ccc(C(=O)O)cc1	0.982	0.945
CC(C)N(CCCNC(=O)Nc1ccc(C(C)(C)C)cc1)C[C@H]1O[C@@H](n2cc(Br)c3c(N)ncnc32)[C@H](O)[C@@H]1O	0.698	0.757
Cc1ccccc1OCC(O)CO (configuration not stated)	0.966	1.05

Structure (SMILES)	PER2::LUC luminescence (time after treatment 24 h)	PER2::LUC luminescence (time after treatment 30 h)
CC(C)CN(C)c1nc(N)c(C(=O)N=C(N)N)nc1Cl	1.16	1.11
CC1(C)S[C@@H]2[C@H](NC(=O)[C@H](C(=O)O)c3ccsc3)C(=O)N2[C@H]1C(=O)O	1.05	0.927
O=C(c1ccc2c(c1)OCCO2)N1CCCCC1	0.924	0.831
CCCC(=O)OCc1ccc(OC(=O)/C=C(C)/C=C/C=C(C)/C=C/C2=C(C)CCCC2(C)C)cc1	1.02	1.16
Cc1cc(NS(=O)(=O)c2ccc(N)cc2)no1	1.11	1
CN[C@@H]1[C@@H](O)[C@@H](O[C@@H]2[C@@H](O)[C@H](O[C@H]3OC(CN)=CC[C@H]3N)[C@@H](N)C[C@H]2N)OC[C@]1(C)O	1.12	0.807
O=C1CN(/N=C/c2ccc(-c3ccc([N+](=O)[O-])cc3)o2)C(=O)N1	0.841	0.783
Nc1[nH]nc2nnc(-c3c(-c4ccccc4)nn4ccccc34)cc12	0.842	0.866
C=C[C@@H](C1=CC(=O)C(OC)=C(OC)C1=O)c1ccccc1	1	0.958
CC(C)OC(=O)CCC/C=C\C[C@@H]1[C@@H](/C=C/[C@@H](O)COc2cccc(C(F)(F)F)c2)[C@H](O)C[C@@H]1O	0.95	0.917
C[C@@H](NC(=O)c1cc(C(=O)N[C@@H](Cc2ccccc2)[C@H](O)CNC2CC2)cc(N(C)S(C)(=O)=O)c1)c1ccccc1	1.01	1.09
CCC(=O)Oc1ccc2c(c1)CC[C@@H]1[C@@H]2CC[C@]2(C)[C@@H](OC(=O)CC)CC[C@@H]12	1.04	0.909
CC1(O)CCC(C(C)(C)O)CC1 (configuration not stated)	0.901 and 0.99	0.986 and 0.688
CCOC(=O)n1ccn(C)c1=S	1.14	0.86
NC(=O)[C@H]1CCCCc2c1[nH]c1ccc(Cl)cc21	1.19	1.11
COc1cc(O)c2c(c1)C(=O)c1cc(C)cc(O)c1C2=O	0.928	0.907
CC(C)[C@H]1c2ccc(F)cc2CC[C@@]1(CCN(C)CCCc1nc2ccccc2[nH]1)OC(=O)C1CC1	0.499	0.431
CCCC1O[C@@H]2C[C@H]3[C@@H]4CCC5=CC(=O)C=C[C@]5(C)[C@H]4[C@@H](O)C[C@]3(C)[C@]2(C(=O)CO)O1 (some centres not stated)	0.646	1.22
NCCC1CCCC(CCN)N1 (configuration not stated)	0.959	1.08
CNC(=O)[C@@H](c1ccccc1)N1CCc2cc(OC)c(OC)cc2[C@@H]1CCc1ccc(C(F)(F)F)cc1	0.859	0.871
